Whole data set: some 33,000 sequences, median “E-score (-0.5 to 0.5)” near -0.054, cut for the highest 2% near 0.39. The list shows a part of the results.
These sequences were tested against Ylr278c (UniProt Q05854) (assay: PBM E-score (8-mer binding enrichment) (E-score (-0.5 to 0.5)); higher = stronger / more preferred TF binding; most listed sequences are background and not binding sites). Conditions: protein concentration: 200 nM; construct: GST-DNA-binding domain.
Procedure: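 Universal 'all 10-mer' protein binding microarrays (Agilent AMADID 015681) probed with GST-tagged S. cerevisiae TFs (full-length or DBD) made by in vitro transcription/translation (PURExpress), about 100-200 nM. Bound TF was detected with fluorescent anti-GST. Each ungapped 8-mer (which stands for itself and its reverse complement) is scored by the PBM enrichment score (E-score), a modified Wilcoxon-Mann-Whitney statistic from -0.5 to +0.5, computed with the Universal PBM Analysis Suite. Scale: above 0.35 generally sequence-specific binding.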

Sequence | PBM E-score
CTCTCATA | -0.114
GTTACATA | -0.102
ACTTTGTG | -0.129
ACCAAATA | -0.126
CGCCACGA | -0.149
GCCTGCAC | -0.0969
ACGCGGGA | 0.242
TAATTGTA | -0.137
AGAACCTC | 0.025
CTGGGGAA | -0.225
ATCATCAC | -0.159
CCGTAGCG | 0.108
ACACCGTA | 0.102
ACTTCGCA | -0.14
CCTCATCC | -0.0905
CAGGTAGC | -0.116
TCAAGTGA | -0.226
CTACGGGC | -0.106
TCTCAGAA | -0.282
CAATGCGC | 0.0785
TGGGAAAA | -0.0945
AAGCATTA | -0.17
AATATTGA | -0.0962
CCCTACCC | -0.0521
GACGTGCA | -0.2

Sequence | PBM E-score
AGATGACT | -0.163
AGGCCTCG | -0.0844
AATATTCG | -0.0844
GCAAACGC | 0.174
GACGTATC | 0.014
CAATCTCG | -0.054
AAGGACGA | -0.156
ATGCTCCA | -0.0254
GAATTCGC | 0.253
AAAAGAGG | -0.234
CGACGCCG | 0.359
GCTTTGAC | 0.0283
ACCGGGCC | 0.293
ACCGACAC | 0.208
AGGTATAC | -0.135
TAGTAGGA | -0.00722
ACTAACAA | -0.122
TCCAACAA | -0.134
GACGGGAA | 0.13
GAAGTCCC | 0.132
CATTTCTA | 0.0511
AGAGTTGA | -0.0371
AGATTTCG | 0.126
TGTACCAA | -0.217
ACCGGCCG | 0.392

Sequence | PBM E-score
GAACCCAC | 0.0897
ATGATACG | -0.0732
CTCTGGCC | -0.161
GTGACCAA | -0.0816
ATTGGCTA | -0.0824
GTAACGTA | -0.214
CTTTATCC | 0.216
CAAGCAAC | -0.101
ACCGAAGA | 0.183
CTCGGCAA | 0.23
AATTCTAG | -0.114
AATCAATT | 0.0644
AGGATACC | -0.042
AGGCACTA | -0.195
ATACGTCC | 0.135
AGCTAGCG | -0.114
AGTTTAGA | 0.198
AAACACGT | -0.056
AGGTGGAA | 0.0674
CCTATAAG | -0.184
ACAAGTCG | -0.309
ACAGATCC | 0.217
AGTCCTGC | -0.116
CTGAGCAC | -0.274
CCCCCTGC | -0.14

Sequence | PBM E-score
AACTATCT | -0.092
AAGGGGTC | -0.238
GCAGACGC | -0.031
GAGGTACA | -0.183
CTCGTCGA | -0.096
GCCTCCCC | -0.0962
AACTGAAT | -0.225
CTATTCGC | -0.123
GTAATCAA | -0.0372
CGACATTC | 0.0686
AGAGTACT | -0.234
CAACTTGG | -0.0729
AGGGTGAG | -0.217
AGGGTGAC | -0.0591
GACCTTAA | -0.133
CTATATCC | 0.0935
ATATCCTC | -0.0585
ATTCATAA | 0.00513
CCGCACAG | 0.213
CGGCAAGC | 0.163
CCCTGGCG | -0.00188
CTCGTGCC | -0.093
AGGCAATG | -0.176
CCATGACA | -0.194
CTGCTGGA | -0.261

Sequence | PBM E-score
ACCTATTA | -0.081
ATAAACTC | 0.149
CAGTATCG | 0.0195
ACAAGCCA | -0.206
CCGATAGA | 0.283
CCTTTAGA | -0.232
CAACAACG | -0.154
CAGTAAAA | 0.0198
ATCGTGAA | 0.00733
ACGGTATC | 0.0343
AACGGCCC | -0.0319
CCAGAAAA | -0.0107
CTAATGAC | -0.308
CCGTGGTA | 0.0176
CATCATAA | -0.163
GCAATAGC | 0.027
CGCAATGA | -0.0665
ATCAGTAA | -0.145
CTTCTTCA | -0.168
GGTCGACC | 0.279
CATGCCCG | 0.254
GCAAAATA | 0.00912
TAAGAATA | -0.249
ATGCGTCG | 0.00978
AGAATAAA | 0.0309

Sequence | PBM E-score
ACAGAGTG | -0.253
AATGATAT | -0.0192
GTGCCTAA | -0.242
GACGGCTA | 0.0163
AGGGACAT | -0.0607
AGCGACCG | 0.0561
AACGGCGG | 0.253
CAACAGGG | -0.0988
CTTGTTCA | -0.126
ATAACGAA | -0.0773
CCGTACGG | 0.201
ACAGTGGG | -0.158
AAAGTATA | -0.153
ACCTCCGC | 0.425
CAGACCAA | -0.0653
CAAGGTTA | -0.15
AATAATTG | -0.0426
CAAGCACA | -0.298
GTCGTGAA | -0.135
TGCCAGCA | -0.0947
GCGGTACC | 0.115
GAATTAGC | 0.00979
GAGATCAC | -0.105
AAAGTAAT | 0.102
AGAAGTAC | -0.273

Sequence | PBM E-score
TGCGCAAA | 0.125
AACACACA | -0.214
TCACAGCA | -0.0696
ATACAATA | 0.137
ACCCTCGC | -0.0907
CATGAGAG | -0.135
AGGCGTTG | -0.136
ACACCTCC | 0.14
GTGGATCA | -0.19
ACCAATCT | -0.0408
CTGATGAC | -0.222
GCGGATGA | 0.207
AACCTCCC | 0.0351
CGGTGATA | 0.216
GGAATTTA | 0.3
AAGCAACT | -0.186
CTATCGCC | -0.117
CAGATTCC | 0.216
CGCTAATC | 0.0897
CCGTTAGC | -0.00457
AAAAAACG | 0.00663
AAATCGTG | 0.0679

Reference: the supplement of paper PMC3334620
